Test results: patent US20220251221A1 (AGENCY FOR SCIENCE TECHNOLOGY AND RESEARCH, published 2022)

Columns and labels:
[1] = biological target: T1, IL-2Rβ and γc expressed natively on human cells (primary human T cells and PBMC subsets, EBV-specific T … (human, UniProt P14784 27-551; P31785 23-369); experiment: cell-based or functional assay
T1 sequence 1: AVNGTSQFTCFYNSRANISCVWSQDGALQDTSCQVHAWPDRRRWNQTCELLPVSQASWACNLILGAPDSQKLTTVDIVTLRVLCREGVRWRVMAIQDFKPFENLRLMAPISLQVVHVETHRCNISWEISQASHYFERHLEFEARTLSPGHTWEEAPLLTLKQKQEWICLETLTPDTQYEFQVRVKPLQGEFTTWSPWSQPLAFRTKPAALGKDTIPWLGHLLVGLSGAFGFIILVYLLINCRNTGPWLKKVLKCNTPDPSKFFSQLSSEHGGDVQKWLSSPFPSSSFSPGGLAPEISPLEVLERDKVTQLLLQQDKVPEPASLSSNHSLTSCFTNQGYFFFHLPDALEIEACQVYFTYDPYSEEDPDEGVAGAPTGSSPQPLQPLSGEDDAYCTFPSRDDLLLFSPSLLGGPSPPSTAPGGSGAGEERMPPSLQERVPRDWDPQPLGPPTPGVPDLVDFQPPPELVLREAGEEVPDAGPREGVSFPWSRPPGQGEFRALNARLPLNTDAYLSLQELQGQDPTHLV
T1 sequence 2: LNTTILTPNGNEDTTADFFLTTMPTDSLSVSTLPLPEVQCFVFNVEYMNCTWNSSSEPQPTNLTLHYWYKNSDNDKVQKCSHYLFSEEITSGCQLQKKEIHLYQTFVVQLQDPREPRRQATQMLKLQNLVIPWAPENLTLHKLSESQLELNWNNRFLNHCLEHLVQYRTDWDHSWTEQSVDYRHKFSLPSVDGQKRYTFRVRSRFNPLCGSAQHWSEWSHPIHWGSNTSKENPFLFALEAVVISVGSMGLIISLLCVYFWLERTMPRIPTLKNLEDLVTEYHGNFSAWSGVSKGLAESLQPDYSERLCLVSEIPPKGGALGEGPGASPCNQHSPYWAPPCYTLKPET

monomeric γc = biological target: T2, monomeric γc (Homo sapiens (Human), UniProt P31785 23-262, limits assumed); experiment: BLI, antibody captured on anti-human Fc biosensor tips, monomeric γc in solution, 1:1 Langmuir fit
T2 construct: Neither the limits nor the species of the construct are stated; also called CD132; common γ chain
T2 sequence: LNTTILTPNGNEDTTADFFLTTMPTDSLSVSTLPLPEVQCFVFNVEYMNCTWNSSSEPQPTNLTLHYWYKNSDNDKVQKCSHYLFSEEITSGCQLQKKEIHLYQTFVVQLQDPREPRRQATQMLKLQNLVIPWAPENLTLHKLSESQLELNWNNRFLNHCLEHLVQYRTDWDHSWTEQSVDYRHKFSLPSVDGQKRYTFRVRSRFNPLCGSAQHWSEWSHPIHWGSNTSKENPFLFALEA
Method: (§1) The affinity of binding of P2C4/P1A3 and P2C4/P1A10 to IL-2Rβ and γc was measured by Bio-Layer Interferometry (BLI).
(§2) P2C4/P1A3 or P2C4/P1A10 were captured on anti-human Fc biosensor tips, and 5 different concentrations of monomeric IL-2Rβ or γc were allowed to bind to the captured antibodies. Dissociation of the antigen from the immobilised antibodies was performed for 5 min. Binding affinity was calculated by fitting binding curves using the 1:1 Langmuir model.

monomeric IL-2Rβ = biological target: T3, monomeric IL-2Rβ (Homo sapiens (Human), UniProt P14784 27-240, limits assumed); experiment: BLI, antibody captured on anti-human Fc biosensor tips, monomeric IL-2Rβ in solution, 1:1 Langmuir fit
T3 construct: Neither the limits nor the species of the construct are stated; also called CD122
T3 sequence: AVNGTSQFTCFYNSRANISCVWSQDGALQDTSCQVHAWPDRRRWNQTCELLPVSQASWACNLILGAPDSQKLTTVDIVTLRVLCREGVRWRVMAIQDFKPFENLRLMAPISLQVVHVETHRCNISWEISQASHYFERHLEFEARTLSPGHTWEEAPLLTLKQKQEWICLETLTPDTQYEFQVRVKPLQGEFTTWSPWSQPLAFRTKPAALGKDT
Method: as §1, §2

recombinant γc-Fc = biological target: T4, recombinant γc-Fc (Homo sapiens (Human), UniProt P31785 23-262); experiment: ELISA on coated γc-Fc ('Binding to IL-2RG (Fc)'), biotinylated antibody, streptavidin-HRP, the axis is [Ab]/nM
T4 construct: also called CD132-Fc; not shown: Fc part of the fusion not described
T4 sequence: T2 sequence
Method: (§3) Binding of P2C4/P1A3 to IL-2Rβ or γc was measured by ELISA analysis, using recombinant IL-2Rβ-Fc and γc-Fc coated on maxisorp plates.
(§4) Biotinylated P2C4/P1A3 was added at various concentrations. Detection of binding was performed using a colorimetric assay using HRP-conjugated streptavidin which converts TMB substrate to a blue solution. The reaction was stopped using hydrochloric acid, and absorbance was measured at 450 nm and 670 nm.

recombinant IL-2Rβ-Fc = biological target: T5, recombinant IL-2Rβ-Fc (Homo sapiens (Human), UniProt P14784 27-240); experiment: ELISA on coated IL-2Rβ-Fc ('Binding to IL-2RB (Fc)'), biotinylated antibody, streptavidin-HRP, the axis is [Ab]/nM
T5 construct: also called CD122-Fc; not shown: Fc part of the fusion not described
T5 sequence: T3 sequence
Method: as §3, §4

B1: P2C4/P1A3 bispecific anti-IL-2Rβ/γc antibody, scFv-KiH-Fc format (bispecific antibody)
chain 1: EVQLVQSGAEVKKPGSSVKVSCKASGYTFTNYYMHWVRQAPGQGLEWMGAIMPSRGGTSYPQKFQGRVTMTGDTSTSTVYMELSSLRSEDTAVYYCARGEYYYDSSGYYYWGQGTLVTVSSGGGGSGGGGSGGGGSQSALTQPASVSGSPGQSIAISCTGTSSDIGHYDFVSWYQQHPGTAPKLIIYDINNRPSGISNRFSGSKSDNMASLTISGLQPEDEADYYCSAYTSSDTLVFGGGTKLTVLNSGAGTA[sequence of human IgG1 Fc with changes and a few adjoining residues not given]
chain 2: QVQLQQWGAGLLKPSETLSLTCAVYGGSFSGYYWSWIRQPPGKGLEWIGEINHSGSTNYNPSLKSRATISVDTSKNQFSLKLSSVTAADTAVYYCATSPGGYSGGYFQHWGQGTLVTVSSGGGGSGGGGSGGGGS[sequence of about 100 residues not given]YCMQGTHWPWTFGQGTKVEIKNSGAGTAAATHTCPPCPAPEAAGGPSVFLFPPKPKDTLMISRTPEVTCVVVDVSHEDPEVKFNWYVDGVEVHNAKTKPREEQYNSTYRVVSVLTVLHQDWLNGKEYKCKVSNKALPAPIEKTISKAKGQPREPQVCTLPPSRDELTKNQVSLSCAVKGFYPSDIAVEWESNGQPENNYKTTPPVLDSDGSFFLCVSKLTVDKSRWQQGNVFSCSVMHEALHNHYTQKSLSLSPGK
notes: also called scFv (P2C4): scFv (P1A3)-KiH-Fc
[1]
  EC50 of NK92 cell proliferation (alamarBlue, 3 days): 0.43 nM
Monomeric γc
  Kd: 84.7 nM
  koff: 0.00442 s⁻¹
  kon: 52200 M⁻¹ s⁻¹
Monomeric IL-2Rβ
  Kd: 30 nM
  koff: 0.00662 s⁻¹
Recombinant γc-Fc
  EC50: 2.69 nM
Recombinant IL-2Rβ-Fc
  EC50: 0.416 nM
